Results taken from PubChem BioAssay AID686978 (National Center for Advancing Translational Sciences (NCATS), 2013).
Out of some 420,000 compounds screened, about 64,000 (15%) were called active. The inconclusive results got no clear call from the source; some entries with a clear call stand among them for comparison. Calls come from the whole dose curve; as a rule, active = well fitted inhibition curve with a large enough effect; inconclusive = small, poorly fitted or top-dose-only effect; inactive = flat fitted curve, though single readings scatter. No potency is given beside an inconclusive call; the fits are too rough.
% is set by controls: 0 for no effect and ±100 for the full control effect; potency is the fitted concentration of half-maximal effect; tags give direction and shape of the fitted curve.

Assay: qHTS for Inhibitors of human tyrosyl-DNA phosphodiesterase 1 (TDP1): qHTS in cells in absence of CPT; note: nearly all actives have a fitted effect of over 55% in size
Details: DT40 Tdp1-/- hTDP1 cells, no CPT, ATP luminescence, 48 h; activity change, negative = growth inhibition: at 46.2 µM (top of the series) unless noted
In short: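 Seeded 400 DT40-hTDP1 cells/well (vehicle DMSO, no 20 nM CPT); pinned compounds; ≥48 hr at 37 °C; CellTiter-Glo luminescence as viability measure.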
With COc1cc(C(=O)Nc2ccc(-n3cnnn3)c(C)c2)cc(OC)c1OC the “activity change, negative = growth inhibition” value was inactive: -18.5%.
With CN1CCN(c2ccc(NC(=O)c3ccc4c(c3)[nH]c(=O)n4Cc3ccc(F)cc3)cc2)CC1 the Potency was active: 29.1 µM.
In the case of O=C(NC1CCCCC1)c1sc(=S)n2c1[nH]c(=O)c1ccccc12, the Potency was active: 23.1 µM.
For CC(=O)N1c2ccc(S(=O)(=O)NCCC(=O)Nc3ccc(Cl)cc3)cc2CC1C (centres undefined), the Potency was inconclusive [inhibitor, partial curve, poor fit].
For CCOC(=O)c1ccc(-c2cc(C)no2)[nH]1, the Potency was inconclusive [inhibitor, single point].
With CCCn1c(=O)n(C)c(=O)c2c(SCc3cc(C(C)=O)ccc3OCC)nc(C3CC3)nc21 the Potency was active: 25.9 µM.
In the case of Cc1cccc(/C(N)=N/OC(=O)CCc2ccccc2)c1, the “activity change, negative = growth inhibition” value was inactive: -1.25%.
For COc1ccc(NC(=O)CSc2nc3scc(C)c3c(=O)[nH]2)cc1, the “activity change, negative = growth inhibition” value was inactive: -17.6%.
In the case of O=C(NC1CCCC1)C1c2ccccc2OCC(=O)N1CCc1ccccc1 (centres undefined), the Potency was inconclusive [inhibitor, partial curve].
In the case of Cc1ccc(CNC(=O)c2cnn3c(C)c(Cc4c(F)cccc4Cl)c(C)nc23)cc1, the Potency was inconclusive [inhibitor, single point].
With O=Cc1ccccc1OS(=O)(=O)c1ccccc1 the Potency was inconclusive [inhibitor, single point].
In the case of CN(C)S(=O)(=O)c1cc(NC(=O)CN2CCCc3ccccc32)ccc1Cl, the Potency was inconclusive [inhibitor, single point].
In the case of COCCCn1c(SCc2ccc(OC)cc2)nc2cc(OC)c(OC)cc2c1=N, the Potency was inconclusive [inhibitor, partial curve].
With Cc1ccc2oc3c(c(=O)c2c1)C(c1cccc(O)c1)N(CCCN1CCOCC1)C3=O (centres undefined) the Potency was inconclusive [inhibitor, single point].
With O=C(NCc1ccc(Cl)cc1Cl)C1CCN(S(=O)(=O)c2ccc3c(c2)OCCCO3)CC1 the Potency was inconclusive [inhibitor, single point].
With CC12CCC(C(=O)C1)C1(C)CCCC(=O)C21 (centres undefined) the “activity change, negative = growth inhibition” value was inactive: 0.604%.
For O=C(O)C1CCN(c2ccccc2[N+](=O)[O-])CC1, the Potency was inconclusive [inhibitor, partial curve, poor fit].
In the case of Cc1ccc(CN2CC(C(=O)NNC(=O)c3ccc(F)cc3)CC2=O)cc1 (centres undefined), the “activity change, negative = growth inhibition” value was inactive: -3.66%.
In the case of Cc1cccc(N2C(=O)C3C4C=CC(C4)C3C2=O)c1 (centres undefined), the “activity change, negative = growth inhibition” value was inactive: -16.5%.
In the case of Cc1ccccc1-n1nnnc1Sc1nnnn1-c1ccccc1, the Potency was active: 8.2 µM.
With Cc1nn(CC(=O)NC(=O)c2ccccc2)c(C)c1[N+](=O)[O-] the “activity change, negative = growth inhibition” value was inactive: 15.2%.
With Cc1ccc(OCCCCCCN2CCNCC2)cc1 the Potency was active: 20.6 µM.
With O=c1cc(N2CCC(Cc3ccccc3)CC2)[nH]c(=O)n1C1CCCCC1 the Potency was active: 16.4 µM.
For COCCOC(=O)N1CCCCC1c1cc(C(=O)Nc2cccc3c2CCCC3)no1 (centres undefined), the Potency was active: 4.61 µM.
In the case of CCOc1ccc(CCNC(=O)c2ccc(C)c(-n3c(C)nc4cccnc43)c2)cc1OCC, the Potency was inconclusive [inhibitor, single point].
In the case of COc1ccccc1S(=O)(=O)Cc1ccc(C(=O)N2CCOCC2)o1, the “activity change, negative = growth inhibition” value was inactive: -13.9%.
For COc1ccc([C@@H]2[C@@H]3C(=O)N(C(C)(C)C)C(=O)[C@@H]3[C@]3(CC(C)C)C(=O)N(c4cccc(Br)c4)C(=O)N23)cc1, the “activity change, negative = growth inhibition” value was inactive: -29.1%.
With COC(=O)c1ccc2c(c1)N(C)S(=O)(=O)c1cnc(SCC(=O)C(C)(C)C)nc1-2 the “activity change, negative = growth inhibition” value was inactive: -2.18%.
In the case of O=S(=O)(c1ccc(NC(=S)N/N=C/c2cccc(Oc3ccccc3)c2)cc1)N1CCOCC1, the Potency was inconclusive [inhibitor, single point].
In the case of Cc1ccc2sc(N(CCCN(C)C)C(=O)c3ccc(S(=O)(=O)N(C)Cc4ccccc4)cc3)nc2c1C, the Potency was inconclusive [inhibitor, single point].
With CCCNS(=O)(=O)c1ccc(Oc2ncc(C(F)(F)F)cc2Cl)cc1 the Potency was inconclusive [inhibitor, partial curve].
For CCN(CC)C(=S)SCC(=O)c1ccccc1, the Potency was inconclusive [inhibitor, single point].
In the case of NNC(=O)c1nn(-c2ccc(Cl)cc2)cc1O, the Potency was inconclusive [inhibitor, single point].
In the case of O=C(NC(=S)Nc1ccc(Br)cc1)C1CCCCC1, the “activity change, negative = growth inhibition” value was inactive: -12.7%.
In the case of CC(C)Oc1ccc(C(=O)Nc2cc(=O)n(C)c(=O)n2C)cc1, the “activity change, negative = growth inhibition” value was inactive: -16.5%.
With COc1ccc(N(Cc2cccs2)C(=O)COc2ccc([N+](=O)[O-])cc2)cc1 the Potency was active: 25.9 µM.
For CN1/C(=C\C(=O)COc2ccc3c(c2)OCO3)C(C)(C)c2ccccc21, the Potency was active: 8.2 µM.
With O=C(Nc1ccc(CN2CCOCC2)cc1)c1ccc(-c2cccc(Cl)c2)o1 the Potency was inconclusive [inhibitor, single point].
With CCOC(=O)[C@]12CCCC=C1N(Cc1cccc3ccccc13)C(=O)[C@H](CC(=O)N1CCSCC1)C2 the Potency was inconclusive [inhibitor, single point].
For Cc1nnc(SCC(=O)N(CCC#N)c2ccc3c(c2)OCCO3)s1, the “activity change, negative = growth inhibition” value was inactive: 6.72%.
With CCOc1ccc(C(=O)Nc2cc(-c3ccccc3)no2)cc1 the “activity change, negative = growth inhibition” value was inactive: -26.7%.
With COc1ccc(-c2nnc(NC(=O)c3cc(Cl)ccc3Cl)o2)cc1 the Potency was inconclusive [inhibitor, single point].
In the case of Fc1ccccc1CNc1ccc(Cl)cc1, the “activity change, negative = growth inhibition” value was inactive: -14.6%.
With Cc1cccc(S(=O)(=O)Nc2ccc(C)c3c2OC(C)(C)C3)c1 the Potency was inconclusive [inhibitor, single point].
In the case of O=C(NCCC(=O)N1CCCCC1)c1ccccc1Cl, the “activity change, negative = growth inhibition” value was inactive: 8.1%.
In the case of COC(=O)c1ccc(-c2nc3cc(Cl)c(N)cc3s2)cc1, the “activity change, negative = growth inhibition” value was inactive: -6.97%.
In the case of CCC(C)(C(=O)NC1CCCCC1)N(C(=O)CNC(=O)c1ccccc1)c1c(C)n(C)n(-c2ccccc2)c1=O (centres undefined), the “activity change, negative = growth inhibition” value was inactive: -2.69%.
With COc1ccccc1N1C(=O)c2ccccc2NC1c1ccncc1 (centres undefined) the “activity change, negative = growth inhibition” value was inactive: 1.59%.
With Cc1ccc(C)c(N(C(=O)CNC(=O)c2ccco2)C(C(=O)NCC2CCCO2)c2ccccc2)c1 (centres undefined) the “activity change, negative = growth inhibition” value was inactive: -20%.
